We go through twelve molecules from the antibiotic and cytotoxicity screens of Wong et al. (2023).

The structures appear in SMILES notation. Some of the results follow.

This test relates to HSkMC (human skeletal muscle cells). The experiment in a line: cytotoxicity call (relative viability < 0.9). To be noted: 10 µM.
As for `O=C(O)[C@H](O)c1ccc(F)cc1`, the cytotoxicity call is “inactive”.
As to `CO[C@@H]1CN(C)C(=O)c2ccc(NC(=O)NC3CCCCC3)cc2OC[C@@H](C)N(CCc2ccccc2)C[C@H]1C`, the cytotoxicity call was “inactive”.
`CC1COc2c(C3(N)CC3)c(F)cc3c(=O)c(C(=O)O)cn1c23.CS(=O)(=O)O` (configuration not stated): the cytotoxicity call was “inactive”.
As for `CC(C)C(N)C(=O)OCC(CO)OCn1cnc2c(=O)[nH]c(N)nc21.Cl` (configuration not stated), the entry is “inactive”; as for `Cc1noc(C)c1NC(=O)N(C)C[C@H]1Oc2ccc(NC(=O)CCN3CCOCC3)cc2C(=O)N([C@H](C)CO)C[C@@H]1C`, “inactive”.
As for `C[C@@H]1CCCCO[C@H](CN(C)S(=O)(=O)c2cn(C)cn2)[C@@H](C)CN([C@@H](C)CO)C(=O)c2cc(NC(=O)CCCN(C)C)ccc2O1`, the entry is “inactive”.
As for `O=C(C[C@@H]1CC[C@H]2[C@@H](COC[C@@H](O)CN2C(=O)c2ccccc2)O1)N1CCOCC1`, the entry is “inactive”; as for `C[C@H](CO)N1C[C@H](C)[C@@H](CN(C)C(=O)Nc2ccccc2F)Oc2ncc(Br)cc2C1=O`, “inactive”; as for `CC(C)(C)NCC(O)c1ccc(O)c(CO)c1` (configuration not stated), “inactive”.
In the case of `C[C@@H]1CCCCO[C@H](CN(C)S(=O)(=O)c2cn(C)cn2)[C@H](C)CN([C@@H](C)CO)C(=O)c2cc(NC(=O)Nc3cccc4ccccc34)ccc2O1`, the cytotoxicity call was “inactive”.
On to `O=C(CCCCC(=O)N/N=C/[C@H](O)[C@@H](O)[C@H](O[C@@H]1O[C@H](CO)[C@H](O)[C@H](O)[C@H]1O)[C@H](O)CO)NO`, for which the cytotoxicity call was “inactive”.
Regarding `Cc1noc(C)c1NC(=O)Nc1cccc2c1O[C@@H](CN(C)S(C)(=O)=O)[C@H](C)CN([C@H](C)CO)C2=O`, the cytotoxicity call was “inactive”.
